Experimental data: patent US20260200947A1, “FUSED CYCLIC COMPOUNDS AND USE THEREOF” (Jacobio Pharmaceuticals Co., Ltd., priority 2022, published 2026)
Like-named read-outs stand apart in the source and are kept apart here.

Assays:
SW620 cells (K-Ras G12V) [1] = assay: Phospho-ERK1/2(THR202/TYR204) HTRF assay, SW620; format: cell-based; conditions: Homo sapiens, SW-620, 2 hours incubation, read-out: pERK, IC50, SW620
GppNp-KRAS G12D = GppNp-KRAS G12D (Homo sapiens, UniProt P01116, G12D); assay: biochemical
GppNp-KRAS G12V = GppNp-KRAS G12V (Homo sapiens, UniProt P01116, G12V); assay: biochemical
[2] = tested on: AsPC-1 cells (K-Ras G12D)
SW620 cells (K-Ras G12V) [3] = tested on: SW620 cells (K-Ras G12V)

`C#Cc1c(F)ccc2cc(N)cc(-c3nc4c5c(nc(OC[C@@]67CCCN6C[C@H](F)C7)nc5c3F)N3CC(F)(F)COCC3N4C)c12` (some centres unmarked) [Compound 55] showed an IC50 (SW620 cells (K-Ras G12V) [1]) of 3.5 nM.

`C#Cc1c(F)ccc2cc(N)cc(-c3nc4c5c(nc(OCC67CC(=C)CN6C[C@H](F)C7)nc5c3F)N3CCCOC[C@H]3CO4)c12` (some centres unmarked) [Compound 13] gave an IC50 (GppNp-KRAS G12D) of 90.6 nM, an IC50 (GppNp-KRAS G12V) of 187 nM and an IC50 (SW620 cells (K-Ras G12V) [1]) of 2.27 nM.

For `C#Cc1c(F)ccc2cc(N)cc(-c3nc4c5c(nc(OC[C@@]67CCCN6C[C@H](F)C7)nc5c3F)N3CC(F)(F)COC[C@H]3CO4)c12` [Compound 19], the IC50 (SW620 cells (K-Ras G12V) [1]) was 3.85 nM.

Compound `C#Cc1c(F)ccc2cc(N)cc(-c3c(Cl)c4c5c(nc(OC[C@@]67CCCN6C[C@H](F)C7)nc5c3F)N3CCCOC[C@H]3CO4)c12` [Compound 11] has an IC50 (GppNp-KRAS G12D) of 172 nM, an IC50 (AGS cells (K-Ras G12D)) of 327 nM and an IC50 (GppNp-KRAS G12V) of 366 nM. It also gave an IC50 (SW620 cells (K-Ras G12V) [1]) of 63.6 nM.

Work on `C#Cc1c(F)ccc2cc(N)cc(-c3nc4c5c(nc(OC[C@@]67CCCN6C[C@H](F)C7)nc5c3F)N3CCCOCC3N4C)c12` (some centres unmarked) [Compound 10] yielded an IC50 (GppNp-KRAS G12D) of 57.1 nM, an IC50 [2] of 44.6 nM and an IC50 (AGS cells (K-Ras G12D)) of 6.93 nM. For the same compound, the IC50 (GppNp-KRAS G12V) was 54.9 nM, the IC50 (SW620 cells (K-Ras G12V) [3]) was 2.6 nM and the IC50 (SW620 cells (K-Ras G12V) [1]) was 3.54 nM.

Compound `C#Cc1c(F)ccc2cc(N)cc(-c3nc4c5c(nc(OC[C@@]67CCCN6C[C@H](F)C7)nc5c3F)N3CC(C)COCC3N4C)c12` (some centres unmarked) [Compound 46] has an IC50 (GppNp-KRAS G12D) of 69.8 nM, an IC50 (GppNp-KRAS G12V) of 107 nM and an IC50 (SW620 cells (K-Ras G12V) [1]) of 8.14 nM.

In the case of `C#Cc1c(F)ccc2cc(N)cc(-c3nc4c5c(nc(OC[C@@]67CCCN6C[C@H](F)C7)nc5c3F)N3CCCOC(C)[C@H]3N4C)c12` (some centres unmarked) [Compound 42], the IC50 (SW620 cells (K-Ras G12V) [1]) is reported as 2.09 nM.

With `C#Cc1c(F)ccc2cc(N)cc(-c3cc4c5c(nc(OC[C@@]67CCCN6C[C@H](F)C7)nc5c3F)N3[C@@H](C)CCOC[C@H]3N4C)c12` [Compound 44] the IC50 (GppNp-KRAS G12D) was 95.6 nM, the IC50 (GppNp-KRAS G12V) was 208 nM and the IC50 (SW620 cells (K-Ras G12V) [1]) was 51.4 nM.

Compound `C#Cc1c(F)ccc2cc(O)cc(-c3nc4c5c(nc(OCC67CC(=C)CN6CC(=C)C7)nc5c3F)N3CCCOC[C@H]3CO4)c12` [Compound 2] has an IC50 (SW620 cells (K-Ras G12V) [1]) of 12.1 nM.

Work on `C#Cc1c(F)ccc2cc(N)cc(-c3nc4c5c(nc(OC[C@@]67CCCN6C[C@H](F)C7)nc5c3F)N3CCC=CC[C@H]3CO4)c12` [Compound 37] yielded an IC50 (GppNp-KRAS G12D) of 42 nM, an IC50 (GppNp-KRAS G12V) of 62.1 nM and an IC50 (SW620 cells (K-Ras G12V) [1]) of 1.84 nM.

In the case of `C#Cc1c(F)ccc2cc(O)cc(-c3nc4c5c(nc(OC[C@@]67CCCN6C[C@H](F)C7)nc5c3F)N3CCCOCC3N4C)c12` (some centres unmarked) [Compound 9], the IC50 [2] is reported as 12.5 nM, the IC50 (AGS cells (K-Ras G12D)) is reported as 2.09 nM and the IC50 (SW620 cells (K-Ras G12V) [3]) is reported as 0.658 nM. It also gave an IC50 (SW620 cells (K-Ras G12V) [1]) of 0.724 nM.

For `C#Cc1c(F)ccc2cc(O)cc(-c3nc4c5c(nc(OC[C@@]67CCCN6C[C@H](F)C7)nc5c3F)N3CCC=CC[C@H]3CO4)c12` [Compound 63], the IC50 (GppNp-KRAS G12D) was 7.27 nM, the IC50 (GppNp-KRAS G12V) was 10.4 nM and the IC50 (SW620 cells (K-Ras G12V) [1]) was 0.571 nM.

`C#Cc1c(F)ccc2cc(N)cc(-c3nc4c5c(nc(OCC67CC(=C)CN6CC(=C)C7)nc5c3F)N3CCCOC[C@H]3CO4)c12` [Compound 3] showed an IC50 (GppNp-KRAS G12D) of 415 nM, an IC50 (GppNp-KRAS G12V) of 660 nM and an IC50 (SW620 cells (K-Ras G12V) [1]) of 1.39 nM.

Work on `C#Cc1c(F)ccc2cc(N)cc(-c3nc4c5c(nc(OC[C@@]67CCCN6C[C@H](F)C7)nc5c3F)N3CC5(CC5)COCC3N4C)c12` (some centres unmarked) [Compound 97] yielded an IC50 (SW620 cells (K-Ras G12V) [1]) of 65.4 nM.

Work on `C#Cc1c(F)ccc2cc(N)cc(-c3nc4c5c(nc(OCC67CCCN6CC(=CF)C7)nc5c3F)N3CCCOC[C@H]3CO4)c12` (some centres unmarked) [Compound 5] yielded an IC50 (SW620 cells (K-Ras G12V) [1]) of 4.15 nM.
